The full ranking holds about 3,600 compounds; the median of “viability index relative to DMSO control” is about 0.81, and the lowest 2% start at about 0.13. The list shows a part of the results.

This passage reports viability index results from the supplement of paper PMC4723716.
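Note: 384-well serum-free SaLSSA: MitoTracker Red CMXRos staining with saponin lysis, high-content imaging, treated-well particle count divided by plate-mean count of DMSO wells.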

In this assay the test system is Plasmodium falciparum NF54 stage V gametocytes. The experiment in a line: viability index relative to DMSO control (fraction); higher = less gametocyte killing. Particulars: 1.25 µM, incubation time: 72 h.
Take `CCC(C)OC(=O)C1=C(C)NC2=C(C(=O)CC(c3ccc(Cl)cc3)C2)C1c1ccccc1F` (stereo not drawn): the viability index worked out at 0.849.
The figure for `COc1ccc(C2CC(=O)C3=C(C2)NC(C)=C(C(=O)OC2CCCC2)C3c2ccc(Cl)cc2)cc1OC` (stereo not drawn) is 0.347.
Regarding `COC(=O)C1=C(C)N(C)C(C)=C(C(=O)OC)C1c1ccc([N+](=O)[O-])cc1`, the viability index was 0.811.
The molecule `COc1ccccc1N1CCN(c2ccc(NC(=O)c3cccc(F)c3)cc2C(=O)N2CCCC2)CC1` registered a viability index of 0.893.
The figure for `Cc1ccc(N2C(N)=NC(N)=NC2(C)C)cc1` is 0.985.
Then `CCC1CCCCN1C(=O)c1cc(-c2ccccc2OC)on1` (stereo not drawn), with 0.661.
Then `CCN1C(=CC=Cc2sc3ccccc3[n+]2CC)Sc2ccccc21`, with 0.188; and `O=C(Nc1ccc2oc(-c3cccc4ccccc34)nc2c1)c1ccc([N+](=O)[O-])o1`, with 0.0679.
With `Cc1nn(-c2cc(N3CCOCC3)ccc2[N+](=O)[O-])c(=O)c2ccccc12`, the viability index stood at 1.02.
The figure for `COc1ccc(C2CC(=O)C3=C(C2)NC(C)=C(C(=O)OC(C)C)C3c2ccccc2Br)cc1` (stereo not drawn) is 0.494; for `COc1cccc2cc(-c3nc(-c4ccccc4)cs3)c(=O)oc12` it is 1.23.
Then `CCCCOc1nc(-c2ccc(OC)cc2)n(C(=O)c2ccccc2OC)n1`, with 0.702; and `CCn1c(C=CN(C(C)=O)c2ccccc2)[n+](CC)c2cc(Cl)ccc21`, with 0.724.
In turn, `CCOC(=O)c1c(NC(=O)CSc2nnc(CNC(=O)c3cccc(C)c3)n2Cc2ccccc2)sc2c1CCCC2` registered a viability index of 0.651.
Then `Cc1nc2ccccc2c(=O)n1NC(=O)c1cccc([N+](=O)[O-])c1`, with 0.804; and `CN(C)c1cc[n+](Cc2c(Cl)cccc2Cl)cc1`, with 0.675; and `CCOC(=O)c1ccc(N(C(=O)Cc2c[nH]c3ccccc23)C(C(=O)NC2CCCCC2)c2cccnc2)cc1` (stereo not drawn), with 0.513.
`COc1ccc(C2CC(=O)C3=C(C2)NC(=O)CC3c2ccc([N+](=O)[O-])cc2)cc1OC` (stereo not drawn) returned a viability index of 0.406.
The figure for `CCOC(=O)C1=C(c2ccccc2)N=c2sc(=Cc3ccccc3O)c(=O)n2C1c1c(OC)ccc2ccccc12` (stereo not drawn) is 0.717; for `CCCCCCOC(=O)C1=C(C)NC(=O)NC1c1ccccc1F` (stereo not drawn) it is 1.43.
As for `O=C(CN1CCCC1)N1N=C(c2cccs2)CC1c1ccc(F)cc1` (stereo not drawn), the viability index was determined as 0.694.
Regarding `Cc1ccc(-n2c(SCc3cccc4ccccc34)nc3sc4c(c3c2=O)CCN(C)C4)cc1`, the viability index came to 1.21.
Then `O=[N+]([O-])c1ccc(N2CCCN(C(=S)Nc3ccccc3)CC2)nc1`, with 0.0788.
